Data reported in the supplement of paper PMC3334620.
In all, about 33,000 sequences were measured (“E-score (-0.5 to 0.5)”: median about -0.054, highest 2% from about 0.39 on). This is one part of the list.

Molecular target: Ylr278c (UniProt Q05854)
Test: PBM E-score (8-mer binding enrichment) (E-score (-0.5 to 0.5)); higher = stronger / more preferred TF binding; most listed sequences are background and not binding sites
Conditions: protein concentration: 200 nM; construct: GST-DNA-binding domain
In short: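 Universal all-10-mer Agilent arrays, double-stranded by primer extension on fresh or once-stripped slides, were probed with about 100-200 nM GST-tagged yeast transcription factors made by PURExpress. Fluorescent anti-GST detected bound protein, and masliner normalised the scans. E-scores from the Universal PBM Analysis Suite were given to each ungapped eight-base word pooled with its reverse complement.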

Row | Sequence | PBM E-score
1 | CGGTAGAA | -0.0537
2 | ATTGACGG | 0.202
3 | AGTTTGGG | -0.00706
4 | AGCGGATC | 0.301
5 | AATCAGTG | -0.0844
6 | AATGATGC | 0.0498
7 | AGCAAAAC | -0.0521
8 | CAGGTAAA | 0.00382
9 | CACACCGA | 0.039
10 | GGTTGACA | -0.1
11 | ACATAACT | -0.0404
12 | CATGCGAG | -0.0432
13 | GCTGAGCC | 0.0048
14 | AAGAAAGG | -0.276
15 | AGCTTCAG | -0.269
16 | AGAAAATG | -0.098
17 | ACAGGGAT | -0.202
18 | ATCGAAGC | -0.026
19 | ACCAACCA | -0.0667
20 | CAGGGACC | -0.3
21 | CGTCGTTC | 0.137
22 | AGCCCCAT | -0.135
23 | CCATGGGA | -0.164
24 | CATGAGAA | 0.0426

Row | Sequence | PBM E-score
25 | CCTGGGTA | -0.18
26 | CTTCCGTC | 0.292
27 | CCGGGGCA | 0.293
28 | CCATTCAC | -0.042
29 | AAAACCCT | 0.0326
30 | CCATCTAG | -0.18
31 | CGTTTACA | -0.113
32 | GATACTGA | -0.0695
33 | GCTGCTAC | -0.18
34 | CCCATTAC | -0.195
35 | GGGCCGAC | 0.228
36 | ACTCGGCG | 0.256
37 | CTTGCTAA | -0.303
38 | ACCGTATG | -0.00992
39 | ACCAAGAT | -0.0275
40 | AGTGAAGG | -0.176
41 | CCACCAAA | -0.0898
42 | AATGTGGA | -0.0722
43 | CATTCAGG | -0.179
44 | ACAGGCAA | -0.209
45 | CATAGGGC | -0.103
46 | GACGGGTA | -0.0791
47 | AGAGCGGC | 0.156
48 | ATATGATC | -0.031

Row | Sequence | PBM E-score
49 | ATTGCCAA | -0.189
50 | GTGAAGCA | -0.118
51 | GCCAAAGA | -0.117
52 | CGGTGTGA | 0.154
53 | GAATGCGC | 0.182
54 | ATGACTAA | -0.146
55 | CCTGGGGA | -0.36
56 | ACCGATGC | 0.246
57 | CAAGAGCG | -0.104
58 | GTAGACAC | 0.0464
59 | TCAAACCA | 0.125
60 | CACTCTAC | -0.104
61 | ACCAGCAG | -0.361
62 | CGGTGGTC | 0.191
63 | ACATTCAT | 0.0396
64 | AGCCAGGA | -0.173
65 | ATCGGGCA | 0.0485
66 | GGCTCACC | -0.111
67 | TGCAACAA | -0.131
68 | GTATTAGA | -0.0651
69 | GCGGAGCC | 0.394
70 | ATAAGATG | -0.193
71 | ATACCACC | 0.042
72 | CATGCTAG | -0.256

Row | Sequence | PBM E-score
73 | CATATGTC | -0.0724
74 | CTCTATCC | -0.094
75 | CTTGCTCC | 0.173
76 | GTCGACTA | 0.00622
77 | GGTTCTAC | -0.0143
78 | AATTCAAG | -0.119
79 | ACTTGGGA | -0.066
80 | GCTCAAAA | -0.0485
81 | CTCATGCA | -0.147
82 | TTATTAAA | 0.0354
83 | GGCATGCC | 0.153
84 | ATTTTCTC | 0.131
85 | AGTAGCCA | -0.271
86 | AGATTCGA | -0.11
87 | AAAGACCT | -0.0813
88 | GATTGATA | -0.196
89 | CATGCTGC | -0.0378
90 | CTGATAGA | 0.0139
91 | CCCTTATA | -0.0646
92 | AAGGAAAG | -0.0889
93 | CTCAAGTC | -0.225
94 | AACGGGGC | 0.147
